# The list shows a part of the results.
# How the values were obtained:
# Test in all cases: glycan array binding signal (z-score within array); higher = stronger binding
# Conditions in all cases: glycan notation: IUPAC condensed, linker removed
# Fuc(a1-2)Gal = biological target: Fuc(a1-2)Gal
# Outline: (§1)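 From the Consortium for Functional Glycomics database, 3228 arrays were curated, keeping only those whose protein sequence was available. Binding is given as a within-array Z-score averaged across arrays sharing a protein sequence and across linkers. Negative Z-scores can be read as non-binding.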
# Fuc(a1-2)Gal(b1-3)GalNAc = biological target: Fuc(a1-2)Gal(b1-3)GalNAc
# Outline: as §1
# [1] = biological target: Fuc(a1-2)Gal(b1-3)GalNAc(a1-3)[Fuc(a1-2)]Gal(b1-4)Glc
# Outline: as §1
# [2] = biological target: Fuc(a1-2)Gal(b1-3)GalNAc(a1-3)[Fuc(a1-2)]Gal(b1-4)GlcNAc
# Outline: as §1
# [3] = biological target: Fuc(a1-2)Gal(b1-3)GalNAc(b1-3)Gal
# Outline: as §1
# [4] = biological target: Fuc(a1-2)Gal(b1-3)GalNAc(b1-3)Gal(a1-4)Gal(b1-4)Glc
# Outline: as §1
# [5] = biological target: Fuc(a1-2)Gal(b1-3)GalNAc(b1-4)[Neu5Ac(a2-3)]Gal(b1-4)Glc
# Outline: as §1
# Fuc(a1-2)Gal(b1-3)GlcNAc = biological target: Fuc(a1-2)Gal(b1-3)GlcNAc
# Outline: as §1
# [6] = biological target: Fuc(a1-2)Gal(b1-3)GlcNAc(b1-2)Man(a1-3)[Fuc(a1-2)Gal(b1-3)GlcNAc(b1-2)Man(a1-6)]Man(b1-4)GlcNAc(b1-4)GlcNAc
# Outline: as §1
# [7] = biological target: Fuc(a1-2)Gal(b1-3)GlcNAc(b1-2)Man(a1-3)[Fuc(a1-2)Gal(b1-3)GlcNAc(b1-2)Man(a1-6)]Man(b1-4)GlcNAc(b1-4)[Fuc(a1-6)]GlcNAc
# Outline: as §1
# [8] = biological target: Fuc(a1-2)Gal(b1-3)GlcNAc(b1-3)Gal(b1-4)Glc
# Outline: as §1
# [9] = biological target: Fuc(a1-2)Gal(b1-3)GlcNAc(b1-3)GalNAc
# Outline: as §1
# [10] = biological target: Fuc(a1-2)Gal(b1-3)GlcNAc(b1-3)[Fuc(a1-2)Gal(b1-3)GlcNAc(b1-6)]GalNAc
# Outline: as §1
# [11] = biological target: Fuc(a1-2)Gal(b1-3)GlcNAc(b1-3)[Gal(b1-4)GlcNAc(b1-6)]Gal(b1-4)Glc
# Outline: as §1
# [12] = biological target: Fuc(a1-2)Gal(b1-3)GlcNAc(b1-3)[Neu5Ac(a2-6)Gal(b1-4)GlcNAc(b1-6)]Gal(b1-4)Glc
# Outline: as §1
# [13] = biological target: Fuc(a1-2)Gal(b1-3)GlcNAc6S
# Outline: as §1
# [14] = biological target: Fuc(a1-2)Gal(b1-3)[Fuc(a1-4)]GlcNAc
# Outline: as §1
# [15] = biological target: Fuc(a1-2)Gal(b1-3)[Fuc(a1-4)]GlcNAc(b1-2)Man(a1-3)[Fuc(a1-2)Gal(b1-3)[Fuc(a1-4)]GlcNAc(b1-2)Man(a1-3)]Man(b1-4)GlcNAc(b1-4)GlcNAc
# Outline: as §1
# [16] = biological target: Fuc(a1-2)Gal(b1-3)[Fuc(a1-4)]GlcNAc(b1-2)Man(a1-3)[Fuc(a1-2)Gal(b1-3)[Fuc(a1-4)]GlcNAc(b1-2)Man(a1-6)]Man(b1-4)GlcNAc(b1-4)[Fuc(a1-6)]GlcNAc(b1-4)[Fuc(a1-6)]GlcNAc
# Outline: as §1
# [17] = biological target: Fuc(a1-2)Gal(b1-3)[Fuc(a1-4)]GlcNAc(b1-3)[Fuc(a1-3)[Gal(b1-4)]GlcNAc(b1-6)]Gal(b1-4)Glc
# Outline: as §1
# [18] = biological target: Fuc(a1-2)Gal(b1-3)[Fuc(a1-4)]GlcNAc(b1-3)[Gal(b1-4)GlcNAc(b1-6)]Gal(b1-4)Glc
# Outline: as §1
# [19] = biological target: Fuc(a1-2)Gal(b1-4)Fuc(a1-3)]GlcNAc(b1-2)Man(a1-3)[Fuc(a1-2)Gal(b1-4)[Fuc(a1-3)]GlcNAc(b1-2)Man(a1-6)]Man(b1-4)GlcNAc(b1-4)GlcNAc
# Outline: as §1
# Fuc(a1-2)Gal(b1-4)Glc = biological target: Fuc(a1-2)Gal(b1-4)Glc
# Outline: as §1
# Fuc(a1-2)Gal(b1-4)Glc6S = biological target: Fuc(a1-2)Gal(b1-4)Glc6S
# Outline: as §1
# Fuc(a1-2)Gal(b1-4)GlcNAc = biological target: Fuc(a1-2)Gal(b1-4)GlcNAc
# Outline: as §1
# [20] = biological target: Fuc(a1-2)Gal(b1-4)GlcNAc(b1-2)Man
# Outline: as §1
# [21] = biological target: Fuc(a1-2)Gal(b1-4)GlcNAc(b1-2)Man(a1-3)[Fuc(a1-2)Gal(b1-4)GlcNAc(b1-2)Man(a1-6)]Man(b1-4)GlcNAc(b1-4)GlcNAc
# Outline: as §1
# [22] = biological target: Fuc(a1-2)Gal(b1-4)GlcNAc(b1-2)Man(a1-3)[Fuc(a1-2)Gal(b1-4)GlcNAc(b1-2)Man(a1-6)]Man(b1-4)GlcNAc(b1-4)[Fuc(a1-6)]GlcNAc
# Outline: as §1
# [23] = biological target: Fuc(a1-2)Gal(b1-4)GlcNAc(b1-2)[Fuc(a1-2)Gal(b1-4)GlcNAc(b1-4)]Man(a1-3)[Fuc(a1-2)Gal(b1-4)GlcNAc(b1-2)Man(a1-6)]Man(b1-4)GlcNAc(b1-4)GlcNAc
# Outline: as §1
# [24] = biological target: Fuc(a1-2)Gal(b1-4)GlcNAc(b1-3)Gal(b1-4)GlcNAc
# Outline: as §1
binder,measurement,setting,value
MpAFP NterminalRI GFP (Marinomonas primoryensis) (protein) MSDNQFPFATLGNAIGFITKLDGSVTVQSIDGQERVLKLGDPIFFGETVLTGGSGSVTIAFVDGTDVVIGGDSIVEMTDEIYNTGDNEDLVADSSSEIDALQNAILAGDDPTLIQDAPAAGNTLADQQRVDVSIERNDNSAQAGFGVDTQSSLPTYGYDTDNGNGGQATEREYSAPSLSRTLNQSPLLEHHHHHH,glycan array binding signal (z-score),Fuc(a1-2)Gal,-0.557
same,glycan array binding signal (z-score),Fuc(a1-2)Gal(b1-3)GalNAc,-0.358
same,glycan array binding signal (z-score),[1],-0.483
same,glycan array binding signal (z-score),[2],-0.525
same,glycan array binding signal (z-score),[3],-0.298
same,glycan array binding signal (z-score),[4],-0.225
same,glycan array binding signal (z-score),[5],-0.577
same,glycan array binding signal (z-score),Fuc(a1-2)Gal(b1-3)GlcNAc,-0.496
same,glycan array binding signal (z-score),[6],0.818
same,glycan array binding signal (z-score),[7],0.078
same,glycan array binding signal (z-score),[8],-0.471
same,glycan array binding signal (z-score),[9],-0.276
same,glycan array binding signal (z-score),[10],0.079
same,glycan array binding signal (z-score),[11],-0.221
same,glycan array binding signal (z-score),[12],-0.238
same,glycan array binding signal (z-score),[13],-0.105
same,glycan array binding signal (z-score),[14],-0.16
same,glycan array binding signal (z-score),[15],0.694
same,glycan array binding signal (z-score),[16],0.468
same,glycan array binding signal (z-score),[17],-0.263
same,glycan array binding signal (z-score),[18],-0.228
same,glycan array binding signal (z-score),[19],1.78
same,glycan array binding signal (z-score),Fuc(a1-2)Gal(b1-4)Glc,-0.478
same,glycan array binding signal (z-score),Fuc(a1-2)Gal(b1-4)Glc6S,1.7
same,glycan array binding signal (z-score),Fuc(a1-2)Gal(b1-4)GlcNAc,-0.249
same,glycan array binding signal (z-score),[20],0.01
same,glycan array binding signal (z-score),[21],-0.219
same,glycan array binding signal (z-score),[22],0.587
same,glycan array binding signal (z-score),[23],0.081
same,glycan array binding signal (z-score),[24],-0.457

# Source: the supplement of paper PMC8728848
